# The list shows a part of the results.
# B1: Si Bti9 1b-V5-his (Solanum lycopersicum) (protein)
# chain: MQCNRGCDLALASFYVWRGSNLTLISEMFSTSIADIVSYNNRDNIPNQDSVIAGTRINIPFRCDCLNDGEVLGHAFPYRVKSGDTYDLVARNYSDLTTAQWMMKFNSYPENNIPNTVNLSVVVNCSCGNSDVSKDFGLFVTYPVRAEDNLTSVASAANVSEDIIRRYNPAAVSILDIGQGIIYIPGRDRNGNFPPLPTSTDGLSGGAKKGGRADPAFLYKVVINSKLEGKPIPNPLLGLDSTRTGHHHHHH
# Columns and labels:
# Test in all cases: glycan array binding signal (z-score within array); higher = stronger binding
# Settings in all cases: glycan notation: IUPAC condensed, linker removed
# [1] = target: GlcNAc(b1-3)Man
# Method in brief: (§1)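 Glycan array data came from 3228 arrays in the Consortium for Functional Glycomics database, and only arrays with an available protein sequence were kept. Glycan names were put into IUPAC-condensed notation, and columns mapping to the same glycan were averaged. The binding signal is a within-array Z-score, averaged across arrays of one protein sequence run at different concentrations or buffers and across linkers. A negative Z-score can be read as non-binding.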
# [2] = target: GlcNAc(b1-3)[GlcNAc(b1-4)][GlcNAc(b1-6)]GlcNAc
# Method in brief: as §1
# [3] = target: GlcNAc(b1-3)[GlcNAc(b1-6)]Gal(b1-4)GlcNAc
# Method in brief: as §1
# [4] = target: GlcNAc(b1-3)[GlcNAc(b1-6)]GalNAc
# Method in brief: as §1
# [5] = target: GlcNAc(b1-4)Gal(b1-4)GlcNAc
# Method in brief: as §1
# [6] = target: GlcNAc(b1-4)GlcNAc
# Method in brief: as §1
# [7] = target: GlcNAc(b1-4)GlcNAc(b1-4)GlcNAc
# Method in brief: as §1
# [8] = target: GlcNAc(b1-4)GlcNAc(b1-4)GlcNAc(b1-4)GlcNAc(b1-4)GlcNAc
# Method in brief: as §1
# [9] = target: GlcNAc(b1-4)GlcNAc(b1-4)GlcNAc(b1-4)GlcNAc(b1-4)GlcNAc(b1-4)GlcNAc
# Method in brief: as §1
# [10] = target: GlcNAc(b1-4)[GlcNAc(b1-6)]GalNAc
# Method in brief: as §1
# [11] = target: GlcNAc(b1-6)Gal(b1-4)GlcNAc
# Method in brief: as §1
# [12] = target: GlcNAc(b1-6)GalNAc
# Method in brief: as §1
# [13] = target: GlcNAc6S(b1-3)Gal(b1-4)GlcNAc
# Method in brief: as §1
# [14] = target: Kdn(a2-3)Gal(b1-3)GalNAc
# Method in brief: as §1
# [15] = target: Kdn(a2-3)Gal(b1-3)GlcNAc
# Method in brief: as §1
# [16] = target: Kdn(a2-3)Gal(b1-4)Glc
# Method in brief: as §1
# [17] = target: Kdn(a2-3)Gal(b1-4)GlcNAc
# Method in brief: as §1
# [18] = target: Kdn(a2-3)Gal(b1-4)[Fuc(a1-3)]GlcNAc
# Method in brief: as §1
# [19] = target: Kdn(a2-6)Gal(b1-4)GlcNAc
# Method in brief: as §1
# [20] = target: Man(a1-2)Man(a1-2)Man(a1-3)Man
# Method in brief: as §1
# [21] = target: Man(a1-2)Man(a1-2)Man(a1-6)[Man(a1-3)]Man
# Method in brief: as §1
# [22] = target: Man(a1-2)Man(a1-3)Man
# Method in brief: as §1
# [23] = target: Man(a1-2)Man(a1-3)[Man(a1-2)Man(a1-6)]Man
# Method in brief: as §1
# [24] = target: Man(a1-2)Man(a1-3)[Man(a1-2)Man(a1-6)]Man(a1-6)[Man(a1-2)Man(a1-2)Man(a1-3)]Man
# Method in brief: as §1
# [25] = target: Man(a1-2)Man(a1-3)[Man(a1-2)Man(a1-6)]Man(a1-6)[Man(a1-2)Man(a1-2)Man(a1-3)]Man(b1-4)GlcNAc(b1-4)GlcNAc
# Method in brief: as §1
# [26] = target: Man(a1-2)Man(a1-3)[Man(a1-6)]Man(a1-6)[Man(a1-2)Man(a1-3)]Man(b1-4)GlcNAc(b1-4)GlcNAc
# Method in brief: as §1
# [27] = target: Man(a1-2)Man(a1-6)[Man(a1-3)]Man(a1-6)[Man(a1-2)Man(a1-2)Man(a1-3)]Man
# Method in brief: as §1
# [28] = target: Man(a1-2)Man(a1-6)[Man(a1-3)]Man(a1-6)[Man(a1-2)Man(a1-2)Man(a1-3)]Man(b1-4)GlcNAc(b1-4)GlcNAc
# Method in brief: as §1
# [29] = target: Man(a1-3)[Man(a1-6)]Man
# Method in brief: as §1
# [30] = target: Man(a1-3)[Man(a1-6)]Man(a1-6)[Man(a1-2)Man(a1-3)]Man(b1-4)GlcNAc(b1-4)GlcNAc
# Method in brief: as §1
# [31] = target: Man(a1-3)[Man(a1-6)]Man(a1-6)[Man(a1-3)]Man
# Method in brief: as §1
# [32] = target: Man(a1-3)[Man(a1-6)]Man(a1-6)[Man(a1-3)]Man(b1-4)GlcNAc(b1-4)GlcNAc
# Method in brief: as §1
# [33] = target: Man(a1-3)[Man(a1-6)]Man(b1-4)GlcNAc(b1-4)GlcNAc
# Method in brief: as §1
# [34] = target: Man(a1-3)[Man(a1-6)]Man(b1-4)GlcNAc(b1-4)[Fuc(a1-6)]GlcNAc
# Method in brief: as §1
# [35] = target: Man(a1-6)Man
# Method in brief: as §1
# [36] = target: Man(b1-4)GlcNAc
# Method in brief: as §1
# [37] = target: MurNAc(b1-4)GlcNAc
# Method in brief: as §1
# [38] = target: Neu5Ac(a2-3)Gal
# Method in brief: as §1
binder,measurement,setting,value
B1,glycan array binding signal (z-score),[1],-0.198
same,glycan array binding signal (z-score),[2],-0.337
same,glycan array binding signal (z-score),[3],-0.263
same,glycan array binding signal (z-score),[4],-0.256
same,glycan array binding signal (z-score),[5],-0.406
same,glycan array binding signal (z-score),[6],-0.277
same,glycan array binding signal (z-score),[7],-0.35
same,glycan array binding signal (z-score),[8],0.13
same,glycan array binding signal (z-score),[9],-0.156
same,glycan array binding signal (z-score),[10],5.97
same,glycan array binding signal (z-score),[11],0.267
same,glycan array binding signal (z-score),[12],-0.181
same,glycan array binding signal (z-score),[13],0.015
same,glycan array binding signal (z-score),[14],-0.196
same,glycan array binding signal (z-score),[15],-0.236
same,glycan array binding signal (z-score),[16],-0.32
same,glycan array binding signal (z-score),[17],-0.192
same,glycan array binding signal (z-score),[18],-0.19
same,glycan array binding signal (z-score),[19],0.082
same,glycan array binding signal (z-score),[20],-0.329
same,glycan array binding signal (z-score),[21],-0.395
same,glycan array binding signal (z-score),[22],-0.307
same,glycan array binding signal (z-score),[23],-0.309
same,glycan array binding signal (z-score),[24],-0.294
same,glycan array binding signal (z-score),[25],-0.367
same,glycan array binding signal (z-score),[26],0.019
same,glycan array binding signal (z-score),[27],-0.131
same,glycan array binding signal (z-score),[28],0.077
same,glycan array binding signal (z-score),[29],-0.158
same,glycan array binding signal (z-score),[30],-0.003
same,glycan array binding signal (z-score),[31],-0.138
same,glycan array binding signal (z-score),[32],-0.257
same,glycan array binding signal (z-score),[33],-0.362
same,glycan array binding signal (z-score),[34],-0.189
same,glycan array binding signal (z-score),[35],5.02
same,glycan array binding signal (z-score),[36],-0.182
same,glycan array binding signal (z-score),[37],-0.464
same,glycan array binding signal (z-score),[38],-0.249
